Our source for the binding signal values is article PMC7819943, “Rice protein-binding microarrays: a tool to detect cis-acting elements near promoter regions in rice”.

The list shows a part of the results.

The test concerns the target T1, OsWOX13 (Oryza sativa, UniProt Q5QMM3 1-267).
T1 sequence: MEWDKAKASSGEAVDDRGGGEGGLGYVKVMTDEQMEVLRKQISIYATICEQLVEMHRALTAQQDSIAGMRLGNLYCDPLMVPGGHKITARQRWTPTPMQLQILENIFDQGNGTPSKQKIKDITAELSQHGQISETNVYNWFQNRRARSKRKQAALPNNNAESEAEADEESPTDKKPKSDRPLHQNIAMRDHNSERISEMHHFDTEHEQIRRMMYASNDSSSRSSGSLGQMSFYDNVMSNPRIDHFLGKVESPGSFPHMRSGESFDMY
As to the kind of experiment: protein-binding microarray (RPBM); PBS, 2% BSA, 51.3 ng/ul salmon testes DNA, 50 uM zinc acetate, 200 nM TF, 25 C, 1 h; high values mean tight binding. The settings on record: protein: recombinant; tags: N-terminal polyhistidine and DsRed monomer fusion (pET32a); label: CyDye5-dUTP incorporated in the synthesized complementary strand; 3' TTTTT single-stranded linker to array surface; dsDNA, one strand shown. The procedure, abridged: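 The binding signal for each feature is its fluorescence intensity in arbitrary units. An Axon 4000B scanner was used to read a custom Agilent array that had been made double-stranded with Cy5-dUTP primer extension, blocked with 2% BSA, incubated at 25 °C for 1 h with 200 nM protein in PBS, 2% BSA, salmon testes DNA and 50 µM zinc acetate, and washed. The protein was an N-terminal polyhistidine–DsRed transcription factor fusion from E. coli BL21-CodonPlus, purified on Ni–NTA.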
Take “TATATATATATATATATATATATATATATATATACAGAAACGGAGTCACCTAGTGCAG”: the binding signal was 13200 fluorescence intensity (a.u.). The value for “GCCAATAATTTTCCAACTCATGTACTTAAGCTGAAAGTTGCGGAGTCACCTAGTGCAG” was 3590 fluorescence intensity (a.u.); that for “TCTTTTGATTATGTGGCCAACTATATATTAATAACTTTGGCGGAGTCACCTAGTGCAG” was 15300 fluorescence intensity (a.u.); that for “TCTGATGAGGAACACATCTCACTTGGGCTCCACGTTCTTCCGGAGTCACCTAGTGCAG” was 5780 fluorescence intensity (a.u.). Turning to “GAACCGTACCACTACTGATTGATATCGACGTGTTTCACCGCGGAGTCACCTAGTGCAG”, the binding signal is 20100 fluorescence intensity (a.u.). Consider “CATTGATGTTTTAAATATGACAGGATCCTCCAAGGGAAGACGGAGTCACCTAGTGCAG”, for which the binding signal is 3930 fluorescence intensity (a.u.). Consider “CGATGACTAATTTGGTAGTAAGCATACATGCATGGGCCAACGGAGTCACCTAGTGCAG”, for which the binding signal was 12700 fluorescence intensity (a.u.). The figure for “GCAAGTTACAGTTTGATTACTATGTCACCTATACACATATCGGAGTCACCTAGTGCAG” is 5960 fluorescence intensity (a.u.). The figure for “GGATTAATTAGGCTCAATAGATTCGTCTTGCGAATTAGTTCGGAGTCACCTAGTGCAG” is 13600 fluorescence intensity (a.u.); for “TGCTAATTAACATACTACTAAAATCATTAGCAGTAAAACGCGGAGTCACCTAGTGCAG” it is 23000 fluorescence intensity (a.u.). The value for “AGCAAATTAAGCAAGAGGCAATTAGAGCGACCTGAATCCGCGGAGTCACCTAGTGCAG” was 6850 fluorescence intensity (a.u.); that for “CTGTTAAATGGATAGCACTAGAATGATATATATATACTTCCGGAGTCACCTAGTGCAG” was 4400 fluorescence intensity (a.u.); that for “AATTGATGATTTACAGGCTAAAGATGTATGGGATATTGTTCGGAGTCACCTAGTGCAG” was 23000 fluorescence intensity (a.u.).

On to “ACCTGATGATAGCTCAACCACGCCTGAATCCACAATCCATCGGAGTCACCTAGTGCAG”, for which the binding signal was 4380 fluorescence intensity (a.u.).

In the case of “TCCGGGCTGGGTGGGTGGGGTGGGGATGGAGCTTGCCTGGCGGAGTCACCTAGTGCAG”, the binding signal was 8780 fluorescence intensity (a.u.).

With “ATCATTGATGGCGACCCAAAACAGGGGTAATTTGGAAAGTCGGAGTCACCTAGTGCAG”, the binding signal was 3380 fluorescence intensity (a.u.). With “CGGTCAATCAGGACCCGGGCGACCAAAATATCCCGCTGTCCGGAGTCACCTAGTGCAG”, the binding signal was 12400 fluorescence intensity (a.u.). Consider “GGATTAATTATACTTAATAAATTCGTCTCGCAGTTTACAGCGGAGTCACCTAGTGCAG”, for which the binding signal is 31100 fluorescence intensity (a.u.). For “ATAATTTATAGGTAATTTTATATGTGATGTTATTAGTGACCGGAGTCACCTAGTGCAG”, the binding signal was 30100 fluorescence intensity (a.u.).

Turning to “CCTCAATTATTAGTAAGATCGATTATTAGTCCCAGTTAGTCGGAGTCACCTAGTGCAG”, the binding signal was 12700 fluorescence intensity (a.u.). “ATTTATGATTTTAAAAGCCAATGTTAAAAGTAGACCACTACGGAGTCACCTAGTGCAG”: the binding signal is 3750 fluorescence intensity (a.u.). The value for “ATTAAACCAATAATTTAAAGATCCATAACGCTAATATTTGCGGAGTCACCTAGTGCAG” was 8090 fluorescence intensity (a.u.).

“CTCTAATTATAATACCATTATTTGGCACCGAACTTTATCACGGAGTCACCTAGTGCAG”: the binding signal is 17400 fluorescence intensity (a.u.). Turning to “TGTCAGTTTTAGTCTAATTGATAATTTACTTCCAACAATCCGGAGTCACCTAGTGCAG”, the binding signal was 25500 fluorescence intensity (a.u.).

As to “ATCCAATTAGACCTTTGAGAGGTGTTTATCTCCTTTTCAACGGAGTCACCTAGTGCAG”, the binding signal is 3740 fluorescence intensity (a.u.). The figure for “AATGTTTGATGTGACAAAATTTCTAGGGTGGGATCTAAACCGGAGTCACCTAGTGCAG” is 3860 fluorescence intensity (a.u.); for “ACAAATTTCTTATATGATTCCTTCTATATTACCAAAAGTGCGGAGTCACCTAGTGCAG” it is 4700 fluorescence intensity (a.u.); for “TCCTCGCAATCATTCCTCCCAAATCTGAAATCTTGCAAGGCGGAGTCACCTAGTGCAG” it is 3180 fluorescence intensity (a.u.). For “ATAAAATTTGTTAAGGACTACTAGTCTTTGTGTATACTTGCGGAGTCACCTAGTGCAG”, the binding signal is 3180 fluorescence intensity (a.u.). The figure for “ACTCAAAATCTGTTTATAGTTGATTTATAGTCTGCTAATCCGGAGTCACCTAGTGCAG” is 7910 fluorescence intensity (a.u.); for “CTCATCCCTCCTGCTAGATATTACTGTTGCTGGCCCCAACCGGAGTCACCTAGTGCAG” it is 4430 fluorescence intensity (a.u.). For the sequence “TTTAAAATACTTAATAGTCAATTAATCATATGCTAATGGCCGGAGTCACCTAGTGCAG”, the binding signal was 16900 fluorescence intensity (a.u.).

As for “TGTGACTGTGAAAGTCTATCCAATCCAGTAATCCACTCTACGGAGTCACCTAGTGCAG”, the binding signal was 6430 fluorescence intensity (a.u.). The figure for “CTTCCATTTCCTGTCATCTGATGCAAATATATTTGTTCTGCGGAGTCACCTAGTGCAG” is 3470 fluorescence intensity (a.u.); for “ACCCGTAACCATAATTACCATTCCCGTGGGCGTGGACAGTCGGAGTCACCTAGTGCAG” it is 12500 fluorescence intensity (a.u.). The figure for “AGCTACAGTGACGGGCAACAAATTGGCTGGATATCCTGTTCGGAGTCACCTAGTGCAG” is 9250 fluorescence intensity (a.u.); for “TTGCAGTTAACGGAATCAGATTAAAGAAGGAAACAAGTGCCGGAGTCACCTAGTGCAG” it is 8900 fluorescence intensity (a.u.). The figure for “AGTCAATTATGACAATTGCTTAGAAATGCTATTCTAGGATCGGAGTCACCTAGTGCAG” is 31500 fluorescence intensity (a.u.); for “AATCTTATTTTAATTAAATCAAATCTTGTCTTAAACTACTCGGAGTCACCTAGTGCAG” it is 9010 fluorescence intensity (a.u.); for “ATTCTGTGATCTAAACATGATTTATGTGTTGATCTCAATTCGGAGTCACCTAGTGCAG” it is 5410 fluorescence intensity (a.u.). On to “CCTATATAAATTATCCGAGTACTAATACGTCGAATATGGTCGGAGTCACCTAGTGCAG”, for which the binding signal was 3870 fluorescence intensity (a.u.).

For “TACTTGATTGGGTTTATTAGCGGATCGAGACTGTGGTACGCGGAGTCACCTAGTGCAG”, the binding signal is 48200 fluorescence intensity (a.u.). In the case of “GTACAATCATGCTAAATGTCAATCTTTTGAAAACTGAATCCGGAGTCACCTAGTGCAG”, the binding signal is 3920 fluorescence intensity (a.u.). In the case of “TAAAATTGTAATTATTTTGGGACGGAGGTAGTACTAATTGCGGAGTCACCTAGTGCAG”, the binding signal was 31500 fluorescence intensity (a.u.). Consider “AGGCCCTAGACATCAATTAATTAAAACTTTCAAGGCCCTACGGAGTCACCTAGTGCAG”, for which the binding signal was 7010 fluorescence intensity (a.u.).

Consider “AAAGTACTATTTAAATTGACTACTGGTTGGTAGGACAAGTCGGAGTCACCTAGTGCAG”, for which the binding signal was 13300 fluorescence intensity (a.u.). The value for “TCTGCTAATTTTAGTTCGGATTTCTAGAATTCGACTTTTACGGAGTCACCTAGTGCAG” was 4250 fluorescence intensity (a.u.); that for “TAGATAGATAGAATTGAATGGTGACCTCAGCTCCAGCTTCCGGAGTCACCTAGTGCAG” was 16200 fluorescence intensity (a.u.); that for “CCACTAATTCACAGATTTCAGGGCAACAGCGCGCCCGCACCGGAGTCACCTAGTGCAG” was 3720 fluorescence intensity (a.u.). For “AAACCTAGATTATCTCTAATTTCTTCATATCACTGTGTATCGGAGTCACCTAGTGCAG”, the binding signal was 19500 fluorescence intensity (a.u.). Consider “GTAATTGAAAACCTAGTTTACCCGCACCGTCCGATCTCCCCGGAGTCACCTAGTGCAG”, for which the binding signal was 16500 fluorescence intensity (a.u.). The figure for “ATCTCAAATTTTCTAAAATTATAATGGTATGGTTCCAATTCGGAGTCACCTAGTGCAG” is 6510 fluorescence intensity (a.u.); for “ATGATTGATCCATGAATCCCATTATCCATCATCCTCGAGTCGGAGTCACCTAGTGCAG” it is 63300 fluorescence intensity (a.u.); for “CTGAGATAATTTGCTTGAAAGTACCTTGTATGCTAAGGCACGGAGTCACCTAGTGCAG” it is 23800 fluorescence intensity (a.u.).
